From the supplement of paper PMC8728848
This is one part of the list.

Legend:
Experiment in all cases: glycan array binding signal (z-score within array); higher = stronger binding
Conditions in all cases: glycan notation: IUPAC condensed, linker removed; mutation: F355A
[1] = biological target: GlcNAc(b1-3)[GlcNAc(b1-6)]GalNAc
Method in brief: (§1)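 Columns mapping to the same glycan were averaged after glycan names were converted to IUPAC-condensed notation. The data come from 3228 arrays in the Consortium for Functional Glycomics database, limited to those with an available protein sequence. Binding is reported as a within-array Z-score averaged across arrays of one protein sequence and across linkers.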

[2] = biological target: GlcNAc(b1-4)Gal(b1-4)GlcNAc
Method in brief: as §1

[3] = biological target: GlcNAc(b1-4)GlcNAc
Method in brief: as §1

[4] = biological target: GlcNAc(b1-4)GlcNAc(b1-4)GlcNAc
Method in brief: as §1

[5] = biological target: GlcNAc(b1-4)GlcNAc(b1-4)GlcNAc(b1-4)GlcNAc(b1-4)GlcNAc
Method in brief: as §1

[6] = biological target: GlcNAc(b1-4)GlcNAc(b1-4)GlcNAc(b1-4)GlcNAc(b1-4)GlcNAc(b1-4)GlcNAc
Method in brief: as §1

[7] = biological target: GlcNAc(b1-4)[GlcNAc(b1-6)]GalNAc
Method in brief: as §1

[8] = biological target: GlcNAc(b1-6)Gal(b1-4)GlcNAc
Method in brief: as §1

[9] = biological target: GlcNAc(b1-6)GalNAc
Method in brief: as §1

[10] = biological target: GlcNAc3Prop(b1-4)GlcNAc
Method in brief: as §1

[11] = biological target: Kdn(a2-3)Gal(b1-3)GlcNAc
Method in brief: as §1

[12] = biological target: Kdn(a2-3)Gal(b1-4)GlcNAc
Method in brief: as §1

[13] = biological target: Man(a1-2)Man(a1-2)Man(a1-3)Man
Method in brief: as §1

[14] = biological target: Man(a1-2)Man(a1-2)Man(a1-6)[Man(a1-3)]Man
Method in brief: as §1

[15] = biological target: Man(a1-2)Man(a1-3)Man
Method in brief: as §1

[16] = biological target: Man(a1-2)Man(a1-3)[Man(a1-2)Man(a1-6)]Man
Method in brief: as §1

[17] = biological target: Man(a1-2)Man(a1-3)[Man(a1-2)Man(a1-6)]Man(a1-6)[Man(a1-2)Man(a1-2)Man(a1-3)]Man
Method in brief: as §1

[18] = biological target: Man(a1-2)Man(a1-3)[Man(a1-2)Man(a1-6)]Man(a1-6)[Man(a1-2)Man(a1-2)Man(a1-3)]Man(b1-4)GlcNAc(b1-4)GlcNAc
Method in brief: as §1

[19] = biological target: Man(a1-2)Man(a1-3)[Man(a1-6)]Man(a1-6)[Man(a1-2)Man(a1-3)]Man(b1-4)GlcNAc(b1-4)GlcNAc
Method in brief: as §1

[20] = biological target: Man(a1-2)Man(a1-6)[Man(a1-3)]Man(a1-6)[Man(a1-2)Man(a1-2)Man(a1-3)]Man
Method in brief: as §1

[21] = biological target: Man(a1-2)Man(a1-6)[Man(a1-3)]Man(a1-6)[Man(a1-2)Man(a1-2)Man(a1-3)]Man(b1-4)GlcNAc(b1-4)GlcNAc
Method in brief: as §1

[22] = biological target: Man(a1-3)[Man(a1-6)]Man
Method in brief: as §1

[23] = biological target: Man(a1-3)[Man(a1-6)]Man(a1-6)[Man(a1-2)Man(a1-3)]Man(b1-4)GlcNAc(b1-4)GlcNAc
Method in brief: as §1

[24] = biological target: Man(a1-3)[Man(a1-6)]Man(a1-6)[Man(a1-3)]Man
Method in brief: as §1

[25] = biological target: Man(a1-3)[Man(a1-6)]Man(a1-6)[Man(a1-3)]Man(b1-4)GlcNAc(b1-4)GlcNAc
Method in brief: as §1

[26] = biological target: Man(a1-3)[Man(a1-6)]Man(b1-4)GlcNAc(b1-4)GlcNAc
Method in brief: as §1

[27] = biological target: Man(a1-6)Man
Method in brief: as §1

[28] = biological target: Man(b1-4)GlcNAc
Method in brief: as §1

[29] = biological target: Neu5Ac(a2-3)Gal
Method in brief: as §1

[30] = biological target: Neu5Ac(a2-3)Gal(b1-3)GalNAc
Method in brief: as §1

[31] = biological target: Neu5Ac(a2-3)Gal(b1-3)GalNAc(b1-3)Gal(a1-4)Gal(b1-4)Glc
Method in brief: as §1

[32] = biological target: Neu5Ac(a2-3)Gal(b1-3)GalNAc(b1-3)Gal(b1-4)GlcNAc
Method in brief: as §1

[33] = biological target: Neu5Ac(a2-3)Gal(b1-3)GalNAc(b1-4)[Neu5Ac(a2-3)]Gal(b1-4)Glc
Method in brief: as §1

[34] = biological target: Neu5Ac(a2-3)Gal(b1-3)GalNAc6S
Method in brief: as §1

[35] = biological target: Neu5Ac(a2-3)Gal(b1-3)GlcNAc
Method in brief: as §1

[36] = biological target: Neu5Ac(a2-3)Gal(b1-3)GlcNAc(b1-3)Gal(b1-3)GlcNAc
Method in brief: as §1

[37] = biological target: Neu5Ac(a2-3)Gal(b1-3)GlcNAc6S
Method in brief: as §1

[38] = biological target: Neu5Ac(a2-3)Gal(b1-3)[Fuc(a1-4)]GlcNAc
Method in brief: as §1

B1: Surfactant Protein D (Human); Neck + Carbohydrate Recognition Domain (NCRD) (Homo sapiens) (protein)
chain: MLLFLLSALVLLTQPLGYLEAEMKTYSHRTMPSACTLVMCSSVESGLPGRDRDGREGPRGEKGDPGLPGAAGQAGMPGQAGPVGPKGDNGSVGEPGPKGDTGPSGPPGPPGVPGPAGREGALGKQGNIGPQGKPGPKGEAGPKGEVGAPGMQGSAGARGLAGPKGERGVPGERGVPGNTGAAGSAGAMGPQGSPGARGPPGLKGDKGIPGDKGAKGESGLPDVASLRQQVEALQGQVQHLQAAFSQYKKVELFPNGQSVGEKIFKTAQFVKPFTEAQLLCTQAGGQLASPRSAAENAALQQLVVAKNEAAFLSMTDSKTEGKFTYPTGESLVYSNWAPGEPNDDGGSEDCVEIFTNGKWNDRACGEKRLVVCEA
glycan array binding signal (z-score) [1]: -0.099 | glycan array binding signal (z-score) [2]: -0.146 | glycan array binding signal (z-score) [3]: -0.115 | glycan array binding signal (z-score) [4]: -0.155 | glycan array binding signal (z-score) [5]: -0.122 | glycan array binding signal (z-score) [6]: -0.146 | glycan array binding signal (z-score) [7]: -0.124 | glycan array binding signal (z-score) [8]: -0.114 | glycan array binding signal (z-score) [9]: -0.153 | glycan array binding signal (z-score) [10]: -0.098 | glycan array binding signal (z-score) [11]: -0.133 | glycan array binding signal (z-score) [12]: -0.072 | glycan array binding signal (z-score) [13]: 0.779 | glycan array binding signal (z-score) [14]: 2.74 | glycan array binding signal (z-score) [15]: -0.159 | glycan array binding signal (z-score) [16]: 4.68 | glycan array binding signal (z-score) [17]: 15 | glycan array binding signal (z-score) [18]: -0.132 | glycan array binding signal (z-score) [19]: 0.902 | glycan array binding signal (z-score) [20]: 1.29 | glycan array binding signal (z-score) [21]: 1.59 | glycan array binding signal (z-score) [22]: -0.064 | glycan array binding signal (z-score) [23]: 2.15 | glycan array binding signal (z-score) [24]: 5.56 | glycan array binding signal (z-score) [25]: 2.12 | glycan array binding signal (z-score) [26]: -0.103 | glycan array binding signal (z-score) [27]: -0.099 | glycan array binding signal (z-score) [28]: -0.133 | glycan array binding signal (z-score) [29]: -0.174 | glycan array binding signal (z-score) [30]: -0.164 | glycan array binding signal (z-score) [31]: -0.117 | glycan array binding signal (z-score) [32]: -0.087 | glycan array binding signal (z-score) [33]: -0.133 | glycan array binding signal (z-score) [34]: -0.139 | glycan array binding signal (z-score) [35]: -0.144 | glycan array binding signal (z-score) [36]: -0.141 | glycan array binding signal (z-score) [37]: -0.152 | glycan array binding signal (z-score) [38]: -0.157
